# Test results as given in article PMC4336329 (PLoS ONE, 2015).
# Hit rate of the full screen: of about 310,000 compounds, about 2,200 (0.71%) showed an effect of 50% or more. The effect is printed as a negative number. This is one part of the list.
# Target: human ether-à-go-go-related gene (hERG) potassium channel (human, UniProt Q12809)
# Assay: primary screen, population patch clamp on CHO cells stably expressing hERG
# Chain of human ether-à-go-go-related gene (hERG) potassium channel (Q12809 whole entry, looked up): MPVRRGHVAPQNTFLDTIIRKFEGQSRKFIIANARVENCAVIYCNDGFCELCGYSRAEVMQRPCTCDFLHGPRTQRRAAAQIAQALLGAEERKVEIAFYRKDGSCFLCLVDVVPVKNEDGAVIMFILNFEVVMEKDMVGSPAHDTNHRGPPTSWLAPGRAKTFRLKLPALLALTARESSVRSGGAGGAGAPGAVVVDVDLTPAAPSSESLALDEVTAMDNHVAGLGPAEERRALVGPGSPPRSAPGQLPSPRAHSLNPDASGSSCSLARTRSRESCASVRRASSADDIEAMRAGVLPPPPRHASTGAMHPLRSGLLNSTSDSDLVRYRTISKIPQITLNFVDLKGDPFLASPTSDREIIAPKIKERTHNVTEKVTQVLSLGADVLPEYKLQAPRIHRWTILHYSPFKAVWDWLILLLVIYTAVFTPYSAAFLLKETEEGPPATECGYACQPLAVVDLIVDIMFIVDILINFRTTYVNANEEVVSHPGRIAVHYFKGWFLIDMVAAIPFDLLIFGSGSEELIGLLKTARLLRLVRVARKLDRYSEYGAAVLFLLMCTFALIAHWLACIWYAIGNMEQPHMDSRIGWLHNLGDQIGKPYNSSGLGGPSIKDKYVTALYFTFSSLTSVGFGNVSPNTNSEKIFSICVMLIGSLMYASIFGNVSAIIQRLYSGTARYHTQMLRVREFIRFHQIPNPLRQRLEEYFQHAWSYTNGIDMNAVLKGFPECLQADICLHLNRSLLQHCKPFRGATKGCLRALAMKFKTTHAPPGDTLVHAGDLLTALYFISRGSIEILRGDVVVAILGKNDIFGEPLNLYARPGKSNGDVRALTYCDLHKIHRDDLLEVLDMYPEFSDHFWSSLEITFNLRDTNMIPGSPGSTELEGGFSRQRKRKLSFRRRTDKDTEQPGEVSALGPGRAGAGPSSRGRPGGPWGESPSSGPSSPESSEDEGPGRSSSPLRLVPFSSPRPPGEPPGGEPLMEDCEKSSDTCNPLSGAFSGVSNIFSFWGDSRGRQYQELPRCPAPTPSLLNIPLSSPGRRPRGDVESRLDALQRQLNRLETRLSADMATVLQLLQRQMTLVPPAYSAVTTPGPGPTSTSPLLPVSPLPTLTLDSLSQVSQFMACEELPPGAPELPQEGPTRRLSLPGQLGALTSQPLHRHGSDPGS
row,SMILES,"hERG current change (%, negative = inhibition) at 1uM"
1,COCCNc1nnc(SCC(=O)NC(=O)c2ccccc2)s1,0.415%
2,Cc1ccc(S(=O)(=O)N2CCN(c3ccccc3)CC2)cc1C(N)=O,-52%
3,COc1cccc(NC(=O)C(OC(=O)c2ccc([N+](=O)[O-])o2)c2ccccc2)c1 (stereo not shown),14.2%
4,CC(C)C(=O)NCCc1nc2ccccc2n1CCc1ccccc1,13.4%
5,Cc1ccc(CN2CCNC(=O)C2CC(=O)NCC(F)(F)F)o1 (stereo not shown),12.5%
6,CCOC(=O)N1CCN(C(=O)C2CCCN(S(C)(=O)=O)C2)CC1 (stereo not shown),14.9%
7,Cc1cccc(/C=N/N2CCN(c3ccccc3)CC2)c1,5.69%
8,Cc1ccc(SCC(=O)NC(C)c2ccccc2)cc1 (stereo not shown),10.3%
9,CCc1ccccc1NC(=O)CSc1n[nH]c(C)c1[N+](=O)[O-],3.17%
10,N#C/C(=N\Nc1c(Cl)cccc1Cl)C(=O)NN,12.9%
11,O=C(C1=C[C@@H]2[C@H]3C(=O)N(c4cccc(Cl)c4)C(=O)[C@H]3[C@@H](C(=O)c3ccc(Cl)cc3)N2C=C1)c1ccccc1,10.2%
12,O=C(Cc1ccccc1)N1CCN(C/C=C/c2ccccc2)CC1,-6.02%
13,CCOC(=O)C1CCN(C(=O)/C=C/c2ccc(OC)cc2)CC1,-5.2%
14,COc1cc(NC(=O)COC(=O)c2cnccn2)c(C)cc1[N+](=O)[O-],9.12%
15,CCN(CC)CCCn1c(=S)[nH]c2cc(OC)c(OC)cc2c1=O,3.77%
16,Cc1ccc2c(c1)NC(=O)C(CC(=O)NCCN(CC(C)C)CC(C)C)O2 (stereo not shown),0.19%
17,O=C(CCc1nc2ccccc2s1)Nc1ccccc1,19.2%
18,NNC(=O)CNC(=O)CNS(=O)(=O)c1ccccc1,5.81%
19,Cc1ccc(S(=O)(=O)Nc2ccc3c(c2)ncn3C(C)(C)C)cc1,-7.29%
20,COc1cc(C(=O)NC2CCCc3ccccc32)cc(OC)c1OC (stereo not shown),11.5%
21,O=C(CN1C(=O)COc2ccc(Cl)cc21)Nc1ccc(N2CCOCC2)cc1,14.4%
22,CC(=O)c1cnc2nc(SCc3ccccc3)nn2c1C,11.4%

row,SMILES,"hERG current change (%, negative = inhibition) at 1uM"
1,O=C(C1CCCN(S(=O)(=O)c2cc(Cl)ccc2Cl)C1)N1CCOCC1 (stereo not shown),6.01%
2,COc1ccc(N)c2c1OCCC2=O,-2.82%
3,Nc1nc2n(n1)C(c1cccc(Cl)c1)CC(c1ccc(F)cc1)N2 (stereo not shown),-9.33%
4,CCOc1ccc2nc(Nc3nc(CSc4nnnn4-c4ccccc4)cc(=O)[nH]3)nc(C)c2c1,13.5%
5,O=C(NC1CCC(O)CC1)c1ccccc1OCc1ccc(F)cc1 (stereo not shown),0.37%
6,CCSCc1nnc(SCC(=O)Nc2cc(F)ccc2C)n1C,9.18%
7,CC1=CC(C)(C)N2C(=O)C3(C(C#N)=C(N)Oc4cc(C)oc(=O)c43)c3cccc1c32 (stereo not shown),7%
8,COc1cccc(C2C3=C(N=C4SCC(=O)N42)c2ccccc2CC3)c1OC (stereo not shown),-0.0544%
9,COc1ccccc1/C=C/C(=O)Nc1cccnc1Cl,20.2%
10,N#Cc1nnn(-c2ccc(Cl)cc2)c1N,11.1%
11,C=C(C)C(=O)N1CC2(CC(c3cccc(NC(=O)/C=C\C)c3)=NO2)C[C@H]1C(N)=O (stereo partly shown),6.91%
12,O=S(=O)(c1cccc(-c2cn3cccnc3n2)c1)N1CCCCCC1,-4.89%
13,Cc1ccc(NC(=O)[C@@H]2CCCN2C(=O)[C@@H]2Cc3ccccc3CN2)c(C)c1,13.2%
14,COc1ccc(S(=O)(=O)N2CCN(Cc3ccccc3[N+](=O)[O-])CC2)cc1,10.3%
15,CC1(C)NC(=O)N(CCCOc2ccc3c(c2)CCC3)C1=O,-9.06%
16,Cc1ccc(C)c(NC(=O)c2ccccc2O)c1,10.5%
17,O=c1[nH]c(O)c(C=Nc2cc(F)cc(F)c2)c(=O)[nH]1,8.43%
18,O=C(Nc1ccc2c(c1)OCCO2)c1cccc(Br)c1,12.9%
19,COc1cc(/C=N/NC(=O)c2cc(-c3ccccc3C)nc3ccccc23)cc(OC)c1O,14.9%
20,O=C(COc1ccc2c(c1)OCO2)Nc1nnc(Cc2ccccc2)s1,28.4%
21,O=C(c1ccco1)N1CCN(C(c2ccccn2)c2nnnn2C2CCCC2)CC1 (stereo not shown),3.62%
22,O=[N+]([O-])c1ccc(O)c(/C=N/n2c(CO)nc3ccccc32)c1,12%

row,SMILES,"hERG current change (%, negative = inhibition) at 1uM"
1,Cc1ccc(S(=O)(=O)c2nnn3c2nc(NC2CCN(Cc4ccccc4)CC2)c2ccccc23)cc1C,10.6%
2,O=C(Nc1ccc(F)cc1)C(=O)c1cn(CC(=O)N2CCOCC2)c2ccccc12,13.4%
3,O=S(=O)(c1cccc(Cl)c1)N1CCC(c2nc3ccccc3[nH]2)CC1,6.83%
4,Cc1ccc(-c2nnc(SCC(=O)Nc3ccc(S(=O)(=O)N4CCCCCC4)cc3)o2)cc1,2.1%
5,O=C(CCCC(=O)N(CC(=O)NC1CCCCC1)Cc1ccccc1)Nc1ccccn1,11.4%
6,CCc1ccccc1NS(=O)(=O)c1ccc2[nH]cc(C(=O)NCc3ccco3)c(=O)c2c1,14.2%
7,Cc1c2cnn(CC(=O)O)c(=O)c2c(C)n1Cc1ccccc1,13.8%
8,Fc1ccc(C2CC(c3ccco3)n3ncnc3N2)cc1 (stereo not shown),2.06%
9,Cc1ccc(Cn2c(Sc3ncccn3)nc3c2c(=O)[nH]c(=O)n3C)cc1,13.1%
10,COc1ccc(CCC(=O)Nc2sccc2C#N)cc1,7.37%
11,CC1(C)CC(=O)C=C(NCc2cccc(C(F)(F)F)c2)C1,1.96%
12,CCCCn1c(N)c(N(CCC(C)C)C(=O)c2ccc(COc3ccccc3)o2)c(=O)[nH]c1=O,5.66%
13,CC(OC(=O)Cc1c(F)cccc1Cl)C(=O)NC1CCCCC1C (stereo not shown),11.9%
14,COc1ccc(CN2C(=O)c3cccnc3C2Nc2cc(Cl)ccc2OC)cc1 (stereo not shown),8.39%
15,COc1ccccc1NC(=O)c1nc(S(=O)(=O)Cc2ccccc2)ncc1Cl,1.24%
16,COc1cc(C(=O)N(C)CC2CCN(CCc3cccc(C(F)(F)F)c3)CC2)ccc1C,-63.8%
17,O=C(CN(CCc1ccccc1)C(=O)c1csnn1)NCc1ccc(F)cc1,3.04%
18,Cc1nn(-c2ccc(F)cc2)c(C)c1CN1CCN(CCC(C)C)C(CCO)C1 (stereo not shown),-0.926%
19,O=C(NCc1cc(F)cc(C(F)(F)F)c1)C1CCC(=O)N(C2CCCC2)C1 (stereo not shown),-3.2%
20,CC(C)Cc1nc2sc3c(=O)n(N)cnc3c2c2c1COC(C)(C)C2,11.4%
21,C/C(CC(=O)N1CCN(C=O)CC1)=N\NC(=O)c1cccc([N+](=O)[O-])c1,8.7%
22,Cc1ccc(NC2=NCC(Cc3ccc(Br)cc3)S2)cc1 (stereo not shown),10.3%

row,SMILES,"hERG current change (%, negative = inhibition) at 1uM"
1,COC(=O)CNC(=O)COC(=O)C(Cc1ccccc1)NC(=O)c1ccco1 (stereo not shown),16.5%
2,COc1ccc(CNC(=O)CCCC(=O)n2nc(C)c3ccccc32)cc1,12.7%
3,Cc1sc(-c2ccncc2)nc1OC(=O)c1ccccc1,8.49%
4,O=C(Nc1ccccc1)C(O)C(O)C(=O)Nc1ccccc1 (stereo not shown),16.8%
5,CCOC(=O)c1ccc(NC(=O)c2sc3nc4n(c(=O)c3c2C)CCC4)cc1,9.71%
6,O=C(Nc1ccc(S(=O)(=O)N2CCOCC2)cc1)c1ccc2c(c1)S(=O)(=O)c1ccccc1C2=O,12.2%
7,O=C(CSc1nnc(Cc2ccccc2)o1)Nc1cccc(F)c1,-7.8%
8,CC(=O)Cn1ncc(N2CCOCC2)c(Cl)c1=O,6.03%
9,Cc1cc(Nc2nc(Cl)c(Cl)cc2Cl)n(-c2ccccc2)n1,11%
10,O=C(CN1N=C(c2ccccc2)CCC1=O)NCc1cccs1,16%
11,Nc1nc(N2CCCCC2)nc(N2CCCCC2)n1,-78.5%
12,CCCn1c(=S)[nH]c2cc(C(=O)N3CCN(C4CCCCC4)CC3)ccc2c1=O,13.2%
13,CCCC(O)(CCC)C(=O)NNc1ccccc1,9.21%
14,CCc1[nH]nc2c1C(c1cccc(OC(=O)N3CCOCC3)c1)C(C#N)=C(N)O2 (stereo not shown),16.7%
15,CCOC(=O)[C@@H]1[C@H]2COc3ccccc3[C@H]2N2C(=O)N(c3ccc(C(F)(F)F)cc3)C(=O)[C@]12C,13.2%
16,CC(=O)N1N=C(c2ccc(NS(C)(=O)=O)cc2)CC1c1ccc2nccnc2c1 (stereo not shown),-24.2%
17,Cc1ccc(C(=O)NC(NC(=O)c2ccc(C)cc2)C(Cl)Cl)cc1,15.4%
18,COc1cccc(Nc2ncnc3sc(C)cc23)c1.Cl,5.64%
19,COP(=O)(OC)Oc1ccc(C(O)C(Cl)(Cl)Cl)cc1 (stereo not shown),16.7%
20,COc1ccccc1NC(=O)N(Cc1ccco1)Cc1cc2cccc(C)c2[nH]c1=O,5.98%
21,O=C(NC(=S)Nc1ccc(N2CCOCC2)c(Cl)c1)c1cccs1,6.45%
22,CCCNC(=O)c1onc(CS(=O)(=O)c2cccc(OC)c2)c1C(=O)NCCC,15.5%
